# According to the supplement of paper PMC8728848:
# The other results are listed elsewhere or left out.
# B1: Surfactant Protein D (Human); Neck + Carbohydrate Recognition Domain (NCRD) (Homo sapiens) (protein)
# chain: MLLFLLSALVLLTQPLGYLEAEMKTYSHRTMPSACTLVMCSSVESGLPGRDRDGREGPRGEKGDPGLPGAAGQAGMPGQAGPVGPKGDNGSVGEPGPKGDTGPSGPPGPPGVPGPAGREGALGKQGNIGPQGKPGPKGEAGPKGEVGAPGMQGSAGARGLAGPKGERGVPGERGVPGNTGAAGSAGAMGPQGSPGARGPPGLKGDKGIPGDKGAKGESGLPDVASLRQQVEALQGQVQHLQAAFSQYKKVELFPNGQSVGEKIFKTAQFVKPFTEAQLLCTQAGGQLASPRSAAENAALQQLVVAKNEAAFLSMTDSKTEGKFTYPTGESLVYSNWAPGEPNDDGGSEDCVEIYTNGKWNDRACGEKRLVVCEF
# Key:
# Experiment in all cases: glycan array binding signal (z-score within array); higher = stronger binding
# Conditions in all cases: glycan notation: IUPAC condensed, linker removed; mutation: F335Y
# Gal3S(b1-4)GlcNAc6S = target: Gal3S(b1-4)GlcNAc6S
# Method in brief: (§1)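 Glycan array binding is given as a within-array Z-score, which can be read as non-binding when negative. The arrays, 3228 of them, came from the Consortium for Functional Glycomics database and were retained only where the protein sequence was available. Z-scores were averaged across arrays of the same protein sequence at different concentrations or buffers and across linkers.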
# [1] = target: Gal3S(b1-4)[Fuc(a1-3)]Glc
# Method in brief: as §1
# Gal3S4S(b1-4)GlcNAc = target: Gal3S4S(b1-4)GlcNAc
# Method in brief: as §1
# Gal3S6S(b1-4)GlcNAc = target: Gal3S6S(b1-4)GlcNAc
# Method in brief: as §1
# Gal3S6S(b1-4)GlcNAc6S = target: Gal3S6S(b1-4)GlcNAc6S
# Method in brief: as §1
# Gal4S(b1-4)GlcNAc = target: Gal4S(b1-4)GlcNAc
# Method in brief: as §1
# Gal4S6S(b1-4)GlcNAc = target: Gal4S6S(b1-4)GlcNAc
# Method in brief: as §1
# Gal6S(b1-4)Glc = target: Gal6S(b1-4)Glc
# Method in brief: as §1
# Gal6S(b1-4)Glc6S = target: Gal6S(b1-4)Glc6S
# Method in brief: as §1
# Gal6S(b1-4)GlcNAc = target: Gal6S(b1-4)GlcNAc
# Method in brief: as §1
# Gal6S(b1-4)GlcNAc6S = target: Gal6S(b1-4)GlcNAc6S
# Method in brief: as §1
# GalNAc(a1-3)Gal = target: GalNAc(a1-3)Gal
# Method in brief: as §1
# GalNAc(a1-3)GalNAc = target: GalNAc(a1-3)GalNAc
# Method in brief: as §1
# GalNAc(b1-3)Gal = target: GalNAc(b1-3)Gal
# Method in brief: as §1
# [2] = target: GalNAc(b1-3)Gal(a1-4)Gal(b1-4)GlcNAc
# Method in brief: as §1
# GalNAc(b1-3)GalNAc = target: GalNAc(b1-3)GalNAc
# Method in brief: as §1
# GalNAc(b1-4)GlcNAc = target: GalNAc(b1-4)GlcNAc
# Method in brief: as §1
# Glc(a1-4)Glc = target: Glc(a1-4)Glc
# Method in brief: as §1
# Glc(a1-6)Glc(a1-6)Glc = target: Glc(a1-6)Glc(a1-6)Glc
# Method in brief: as §1
# Glc(b1-4)Glc = target: Glc(b1-4)Glc
# Method in brief: as §1
# Glc(b1-6)Glc = target: Glc(b1-6)Glc
# Method in brief: as §1
# GlcA(b1-3)Gal = target: GlcA(b1-3)Gal
# Method in brief: as §1
# GlcA(b1-3)GlcNAc = target: GlcA(b1-3)GlcNAc
# Method in brief: as §1
# GlcA(b1-6)Gal = target: GlcA(b1-6)Gal
# Method in brief: as §1
# [3] = target: GlcNAc(a1-3)Gal(b1-4)GlcNAc
# Method in brief: as §1
# [4] = target: GlcNAc(a1-6)Gal(b1-4)GlcNAc
# Method in brief: as §1
# [5] = target: GlcNAc(b1-2)Gal(b1-3)GalNAc
# Method in brief: as §1
# [6] = target: GlcNAc(b1-2)Man(a1-3)[GlcNAc(b1-2)Man(a1-6)]Man(b1-4)GlcNAc(b1-4)GlcNAc
# Method in brief: as §1
# GlcNAc(b1-3)Gal = target: GlcNAc(b1-3)Gal
# Method in brief: as §1
# [7] = target: GlcNAc(b1-3)Gal(b1-3)GalNAc
# Method in brief: as §1
# GlcNAc(b1-3)Gal(b1-4)Glc = target: GlcNAc(b1-3)Gal(b1-4)Glc
# Method in brief: as §1
# [8] = target: GlcNAc(b1-3)Gal(b1-4)GlcNAc
# Method in brief: as §1
# [9] = target: GlcNAc(b1-3)Gal(b1-4)GlcNAc(b1-3)Gal(b1-4)GlcNAc
# Method in brief: as §1
# GlcNAc(b1-3)GalNAc = target: GlcNAc(b1-3)GalNAc
# Method in brief: as §1
# GlcNAc(b1-3)Man = target: GlcNAc(b1-3)Man
# Method in brief: as §1
# [10] = target: GlcNAc(b1-3)[GlcNAc(b1-4)][GlcNAc(b1-6)]GlcNAc
# Method in brief: as §1
# [11] = target: GlcNAc(b1-3)[GlcNAc(b1-6)]Gal(b1-4)GlcNAc
# Method in brief: as §1
binder,measurement,setting,value
B1,glycan array binding signal (z-score),Gal3S(b1-4)GlcNAc6S,-0.186
same,glycan array binding signal (z-score),[1],-0.188
same,glycan array binding signal (z-score),Gal3S4S(b1-4)GlcNAc,-0.19
same,glycan array binding signal (z-score),Gal3S6S(b1-4)GlcNAc,-0.191
same,glycan array binding signal (z-score),Gal3S6S(b1-4)GlcNAc6S,-0.194
same,glycan array binding signal (z-score),Gal4S(b1-4)GlcNAc,-0.19
same,glycan array binding signal (z-score),Gal4S6S(b1-4)GlcNAc,-0.177
same,glycan array binding signal (z-score),Gal6S(b1-4)Glc,-0.177
same,glycan array binding signal (z-score),Gal6S(b1-4)Glc6S,-0.187
same,glycan array binding signal (z-score),Gal6S(b1-4)GlcNAc,-0.185
same,glycan array binding signal (z-score),Gal6S(b1-4)GlcNAc6S,-0.192
same,glycan array binding signal (z-score),GalNAc(a1-3)Gal,-0.182
same,glycan array binding signal (z-score),GalNAc(a1-3)GalNAc,-0.185
same,glycan array binding signal (z-score),GalNAc(b1-3)Gal,-0.194
same,glycan array binding signal (z-score),[2],-0.176
same,glycan array binding signal (z-score),GalNAc(b1-3)GalNAc,-0.189
same,glycan array binding signal (z-score),GalNAc(b1-4)GlcNAc,-0.154
same,glycan array binding signal (z-score),Glc(a1-4)Glc,-0.188
same,glycan array binding signal (z-score),Glc(a1-6)Glc(a1-6)Glc,-0.189
same,glycan array binding signal (z-score),Glc(b1-4)Glc,-0.187
same,glycan array binding signal (z-score),Glc(b1-6)Glc,-0.152
same,glycan array binding signal (z-score),GlcA(b1-3)Gal,-0.192
same,glycan array binding signal (z-score),GlcA(b1-3)GlcNAc,-0.182
same,glycan array binding signal (z-score),GlcA(b1-6)Gal,-0.187
same,glycan array binding signal (z-score),[3],-0.187
same,glycan array binding signal (z-score),[4],-0.18
same,glycan array binding signal (z-score),[5],-0.189
same,glycan array binding signal (z-score),[6],-0.18
same,glycan array binding signal (z-score),GlcNAc(b1-3)Gal,-0.18
same,glycan array binding signal (z-score),[7],-0.18
same,glycan array binding signal (z-score),GlcNAc(b1-3)Gal(b1-4)Glc,-0.193
same,glycan array binding signal (z-score),[8],-0.189
same,glycan array binding signal (z-score),[9],-0.186
same,glycan array binding signal (z-score),GlcNAc(b1-3)GalNAc,-0.193
same,glycan array binding signal (z-score),GlcNAc(b1-3)Man,-0.187
same,glycan array binding signal (z-score),[10],-0.153
same,glycan array binding signal (z-score),[11],-0.193
